Data taken from US20220340642A1 (Kyowa Kirin, published 2022).

T1: membrane-bound human TL1A (Met and FLAG tag at the N-terminus) on CHO-K1 cells (human, UniProt O95150 2-251)
T1 construct: also called TL1A/CHO
T1 sequence: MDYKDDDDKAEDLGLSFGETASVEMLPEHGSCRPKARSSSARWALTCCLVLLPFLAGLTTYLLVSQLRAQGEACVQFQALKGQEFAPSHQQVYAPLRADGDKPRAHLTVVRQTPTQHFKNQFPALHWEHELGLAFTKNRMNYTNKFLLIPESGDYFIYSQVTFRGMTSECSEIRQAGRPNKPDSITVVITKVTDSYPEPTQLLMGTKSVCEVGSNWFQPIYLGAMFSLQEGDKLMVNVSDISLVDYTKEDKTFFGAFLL

T2: soluble recombinant of cynomolgus monkey LIGHT (His10, GS linker, Asp74-Val240)
T2 chain: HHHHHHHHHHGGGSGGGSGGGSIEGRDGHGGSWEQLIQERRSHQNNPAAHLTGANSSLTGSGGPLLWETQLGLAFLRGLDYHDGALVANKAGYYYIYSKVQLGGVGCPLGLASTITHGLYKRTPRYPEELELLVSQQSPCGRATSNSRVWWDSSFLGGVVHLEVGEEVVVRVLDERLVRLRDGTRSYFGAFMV

T3: soluble recombinant of cynomolgus monkey TL1A (His6, GS linker, Leu72-Leu251)
T3 chain: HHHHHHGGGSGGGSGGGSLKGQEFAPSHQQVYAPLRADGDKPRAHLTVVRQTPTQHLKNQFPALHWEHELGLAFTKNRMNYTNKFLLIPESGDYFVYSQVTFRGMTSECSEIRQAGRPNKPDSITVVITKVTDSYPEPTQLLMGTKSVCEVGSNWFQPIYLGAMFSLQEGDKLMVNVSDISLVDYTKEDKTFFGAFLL

B1: chimera A-Fc (Eg1S N434A) (Fc fusion)
chain: ETFPPKYLHYDEETSHQLLCDKCPPGTYLKQHCTAKWKTVCAPCPPRHYTQFWNYLERCRYCNVLCGEREEEARACHATHNRACRCRTGFFAHAGFCLEHASCPPGAGVIAPGTPSQNTQCQPCPDGFFSNETSSKAPCRKHTNCSVFGLLLTQKGNATHDNICSGNSESTQK[omitted - human IgG1 Fc with changes]
B2: chimera A-Fc (Eg1S LALAGA) (Fc fusion)
chain: ETFPPKYLHYDEETSHQLLCDKCPPGTYLKQHCTAKWKTVCAPCPPRHYTQFWNYLERCRYCNVLCGEREEEARACHATHNRACRCRTGFFAHAGFCLEHASCPPGAGVIAPGTPSQNTQCQPCPDGFFSNETSSKAPCRKHTNCSVFGLLLTQKGNATHDNICSGNSESTQK[omitted - human IgG1 Fc with C220S L234A L235A G237A (EU numbers)]

Tests used:
[1] = biological target: T4, membrane-bound human LIGHT (human, UniProt O43557 1-240); test: flow cytometry on expressing cells
T4 construct: whole, on cells; also called LIGHT/HEK293
In short: (§1)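 Binding was measured by flow cytometry on HEK293 cells forced to express membrane-bound LIGHT and on cell lines expressing N-terminally Met/FLAG-tagged TL1A or FasL from a CMV-promoter pClpuro vector. Cells at 1×10⁵ cells/well received 1 or 10 μg/mL protein on ice for 1 hour. After washing, cells were stained on ice for 1 hour with LIVE/DEAD Fixable Aqua and R-phycoerythrin goat F(ab′)₂ anti-human IgG (10 ng/mL, 0.1 or 1 μg/mL). Fluorescence was read on a FACS Fortessa.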

[2] = biological target: T1, membrane-bound human TL1A (Met and FLAG …); test: flow cytometry on expressing cells
In short: as §1

[3] = biological target: T2, soluble recombinant of cynomolgus …; test: BIAcore SPR
In short: (§2)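 Surface plasmon resonance was used to analyse how each test molecule bound to soluble recombinant His-tagged LIGHT, TL1A or FasL of human or cynomolgus monkey origin. Runs took place in HBS-EP+ Buffer on a BIAcore T-100 or T-200 instrument (GE Healthcare). The dissociation constant (Kd, nM) was obtained from these measurements.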

[4] = biological target: T3, soluble recombinant of cynomolgus …; test: BIAcore SPR
In short: as §2

Row | Binder | binding result [1] | binding result [2] | Kd [3] [pM] | Kd [4] [pM]
1 | B1 | binds | binds | 210 | 120
2 | B2 | binds | binds | 200 | 110
